In the supplement of paper PMC12632987:
Over roughly 4,500 sequences, “median log2 fold change of GCK-ALFA target abundance (FLAG IP / Myc IP barcode read proportion)” has its median near 0.078; the lowest 2% begin near -0.6. Some of the results follow.

B1: GBRAP_52_5915 (protein)
chain: MSAELEAKLDEMLAAVKAGKLEEARAIAREIVESLDDEELRELVELFAERVRAAPLEDLPAWWRLAEILAEELEEAGKDEVLADDLLNRTAAAIYEKLQA
B2: GBRAP_160_4261 (protein)
chain: SEELEELIEDIEEDKEEILSLVDEISAEEVRTYAVTELGSHLLEAIELGIVSDEEEEELAEIIDELEEELTAAADASKEELKAIITKHFEKAKEILEKSK
B3: GBRAP_139_3732 (protein)
chain: SADEEKVKEVVDLTRESFATGGAKVKEVADKLNSLDEDTAEKAAEAMAEVAKDQPFDVVEAFFDALIDTLLTEHKNEDKAEIVEAARNRALAEVAVREEA
B4: GBRAP_39_5715 (protein)
chain: DEEEELELLASYFEALFDKRAYDAGISEEEAVARGLARWREWAERHPEHRERIERLIREAEELGPEARRVLAAAAAGVEAGMPLEEAMAVAEYRFAQLKA
B5: GBRAP_52_6320 (protein)
chain: MKEEAKKLAEELVKLVKEGKLEEARKLAREIARNKSEEFLKMIGEVLAEMAKTANEEEIDAIVEAAEILAEELEKEGYDEAFASDILAKVAAAAYENELK
B6: GBRAP_52_5885 (protein)
chain: ALEEAVKLLEELIEAVKAGDEEKARELAKKIVENFDEETILEAVEKVAKELLDKSLEEAEAFWEAAELLAKELLEKGGSEEVASYIEAIAGATLYKVSQK
B7: GBRAP_128_3538 (protein)
chain: SLEEVKKRAREVMEKIKNSSVEEAYEITKEFLEELKSLSLEEVEAAIEVLEELLPELSAEKLEAIADAMREMRPTLSPEKQRLVADLQVEALNEAEEKEE
B8: GBRAP_186_5382 (protein)
chain: EEEVEEEADKIIDELEAEGYRVIRVYIEGKSVEEIKRAIERDAEAVAALAKETGKKWALVVEVLTRKEDVEEIKEFGEELNKRMLAESGVVVRVAVGDSE
B9: GBRAP_128_3474 (protein)
chain: SVEEVVAETAATMEAIIAADPAEARKLAEALFARLATLDLESVEAAVEVIESHLPKLTAEKLEILADVARAARPAFDPEKAALLADLESEALLLAEEKEE
B10: GBRAP_128_3216 (protein)
chain: STEEAVARVRELLEQIKESDEETAKEIAKELADFIASLSLETAEAAREVIEELLPELTEEQLEILMDAFSEKSKETDGPVADVLADLAVEAGEQILEQEE
B11: GBRAP_11_2813 (protein)
chain: APPEQKEAVKKLKEAAELAEKLIEEEPGNEELLEELLKKAKEALKLVKKHLSEAHKKDAEVALELVEEAKADPENRLEYVKNALAAFRTLLANIEEELEE
B12: GBRAP_26_5493 (protein)
chain: KVEEILEELRKETEEILKDESEDLRAAVIAEAEDLLLEAEEYFEEHLDDEEAQEKAIKEATEELRKELKDFGLSEEKIEKLVEALRKAMEKIKEALKKEK
B13: GBRAP_9_7156 (protein)
chain: MKELVDKIKEVIEDAFEEIEEVVPEEVKPIVEELRKKAEKRLEELAADPNATKEEIVKEAKEILEEIEKVLSEKVDPETKKIVEAIVLTAKLEIEEIAEE
B14: GBRAP_160_4084 (protein)
chain: SEEFEKLIKEVEEIFDEAIEMMKDVSVEEAVAIALVALGEVALLIEEEESLSEEAKEELLELIDEGEEEIRAAKDKSVEEIIELLERFREKIVEKIKEAS
B15: GBRAP_52_6313 (protein)
chain: MREEMRAQAEELLALMLAGDRDGARALAEELVATLSEEELLLLAEELAKLSETLNAEELDKAMELLEILEDVMEEAGVDERVIAEIRGIVITAIYKAEQK
B16: GBRAP_160_4001 (protein)
chain: MEELEKLKKEIEELIKETIEAMEGLTPEERLTLVKGTMGEIIQLVFESPAVSEESEDEIAELGDETIEKVEENKDKPLEVWKELLEETLEKIKEILDKDE
B17: GBRAP_11_2790 (protein)
chain: KKKLLEELAKKLEEAKKLLEKALESDPNDEELWKKLEKELEEAEKLAEEAGDETTAELLKYAKEELEKAKEDPENRKEHLERALALVRVAEGLVLLDIEE
B18: GBRAP_125_2985 (protein)
chain: SMEELLEDLRRLLKALGLSEEEAEEAVRLAREHSLKQTLYAVAKALGWEEVADAVAKLTEEQAKRVVRRASEYIKEHPDITPEEVKELLLELANEELAKA
B19: GBRAP_78_6616 (protein)
chain: EKKEKIKELLEEAERKLREIIKKVPEYANEAADAAVLVGTAIYMVDTGSESKEELKETVKEAIKELEELLKKLKDAPEEAQKLAKEALELAKKALELLEE

Target: GABARAP, O95166
Sequence (O95166 whole entry, the tested form may be a part): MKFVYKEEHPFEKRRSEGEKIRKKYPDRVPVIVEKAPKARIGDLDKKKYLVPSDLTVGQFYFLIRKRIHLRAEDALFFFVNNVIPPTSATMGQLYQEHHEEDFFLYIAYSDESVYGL
Assay: median log2 fold change of GCK-ALFA target abundance (FLAG IP / Myc IP barcode read proportion) (log2 ratio); each designed protein is fused to an ALFA-tag nanobody in HEK293 cells to bring the named protein to FLAG-tagged glucokinase (GCK); Myc marks an untargeted standard; higher = target protein stabilised (more abundant)
Settings: target protein: 3xFLAG-MCP-GCK-ALFA reporter; HEK293 landing pad (RPLP)
Protocol: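 LABEL-seq trans screen in HEK293 landing-pad cells. Each de novo designed 100-aa effector handle, binding the indicated effector (E3 ligase, DUB or autophagy protein), is fused to a constant NbALFA target handle and induced with 2 ug/mL doxycycline. A FLAG-MCP-GCK-ALFA target and a Myc-MCP standard reporter were transfected, and after 48 h circRNA barcodes were recovered by anti-FLAG and anti-Myc IP and sequenced. The value is the median across barcodes (at least 3 per design) of log2(FLAG/Myc read-proportion ratio), with the two transfection replicates pooled. Negative values mean degradation and positive values mean stabilisation of the target.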

Compared with B1, B2 is higher in “median log2 fold change” value: -0.669 for the first, -0.381 for the second.

B3 and B4 are within 0.2 log units of each other in “median log2 fold change” value: 0.236 for the first, 0.0453 for the second.

First: B5
Second: B6
The “median log2 fold change” value of the first is higher: 0.275 for the first, 0.0702 for the second.

Going from B7 to B8, the “median log2 fold change” value falls from 0.273 to 0.0475.

B9 and B10 are within 0.2 log units of each other in “median log2 fold change” value: 0.242 for the first, 0.19 for the second.

B11 and B12 are within 0.2 log units of each other in “median log2 fold change” value: 0.23 for the first, 0.221 for the second.

Going from B13 to B14, the “median log2 fold change” value falls from 0.172 to -0.129.

B15 and B16 are within 0.2 log units of each other in “median log2 fold change” value: -0.0291 for the first, -0.0236 for the second.

First: B17
Second: B18
The “median log2 fold change” value of the first is lower: -0.266 for the first, 0.15 for the second.

With B19 the “median log2 fold change” value was 0.228.
